# In ChEMBL document CHEMBL1122724, “Synthesis and kinetic studies of protease substrates containing the 1-methyl-6-aminoquinolinium ion as a fluorogenic leaving group” (J Med Chem, 1984):
# System: O=C(O)CCCC(=O)N[C@@H](Cc1ccccc1)C(=O)Nc1ccc2ncccc2c1
# Assay: Kinetic constant was determined from the initial rates of enzymatic hydrolysis by the Lineweaver-Burke method against alpha-chymotrypsin enzyme at a concentration of 2.0 uM
# Conditions: Sus scrofa
substance,measurement,value
Chymotrypsinogen B (Homo sapiens) (sequence not shown),Km,1800 µM
